Experimental data published in the supplement of paper PMC8728848.
The other results are listed elsewhere or left out.

Key:
Test in all cases: glycan array binding signal (z-score within array); higher = stronger binding
Conditions in all cases: glycan notation: IUPAC condensed, linker removed
[1] = target: Fuc(a1-2)Gal6S(b1-3)GlcNAc6S
Outline: (§1)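 Arrays were curated from the Consortium for Functional Glycomics database, 3228 in total, and kept only where the protein sequence was available. Binding is expressed as a within-array Z-score. This score was averaged across arrays of the same protein sequence at different concentrations or buffers and across linkers, and negative values can be read as non-binding.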

Fuc(a1-2)Gal6S(b1-4)Glc = target: Fuc(a1-2)Gal6S(b1-4)Glc
Outline: as §1

[2] = target: Fuc(a1-2)Gal6S(b1-4)Glc6S
Outline: as §1

Fuc(a1-2)[Gal(a1-3)]Gal = target: Fuc(a1-2)[Gal(a1-3)]Gal
Outline: as §1

[3] = target: Fuc(a1-2)[Gal(a1-3)]Gal(b1-3)GalNAc
Outline: as §1

[4] = target: Fuc(a1-2)[Gal(a1-3)]Gal(b1-3)GalNAc(b1-3)Gal(a1-4)Gal(b1-4)Glc
Outline: as §1

[5] = target: Fuc(a1-2)[Gal(a1-3)]Gal(b1-3)GlcNAc
Outline: as §1

[6] = target: Fuc(a1-2)[Gal(a1-3)]Gal(b1-3)GlcNAc(b1-2)Man(a1-3)[Fuc(a1-2)[Gal(a1-3)]Gal(b1-3)GlcNAc(b1-2)Man(a1-6)]Man(b1-4)GlcNAc(b1-4)GlcNAc
Outline: as §1

[7] = target: Fuc(a1-2)[Gal(a1-3)]Gal(b1-3)GlcNAc(b1-2)Man(a1-3)[Fuc(a1-2)[Gal(a1-3)]Gal(b1-3)GlcNAc(b1-2)Man(a1-6)]Man(b1-4)GlcNAc(b1-4)[Fuc(a1-6)]GlcNAc
Outline: as §1

[8] = target: Fuc(a1-2)[Gal(a1-3)]Gal(b1-3)GlcNAc(b1-3)GalNAc
Outline: as §1

[9] = target: Fuc(a1-2)[Gal(a1-3)]Gal(b1-3)GlcNAc(b1-6)GalNAc
Outline: as §1

[10] = target: Fuc(a1-2)[Gal(a1-3)]Gal(b1-4)Glc
Outline: as §1

[11] = target: Fuc(a1-2)[Gal(a1-3)]Gal(b1-4)GlcNAc
Outline: as §1

[12] = target: Fuc(a1-2)[Gal(a1-3)]Gal(b1-4)GlcNAc(b1-2)Man
Outline: as §1

[13] = target: Fuc(a1-2)[Gal(a1-3)]Gal(b1-4)GlcNAc(b1-2)Man(a1-3)[Fuc(a1-2)[Gal(a1-3)]Gal(b1-4)GlcNAc(b1-2)Man(a1-6)]Man(b1-4)GlcNAc(b1-4)GlcNAc
Outline: as §1

[14] = target: Fuc(a1-2)[Gal(a1-3)]Gal(b1-4)GlcNAc(b1-2)Man(a1-3)[Fuc(a1-2)[Gal(a1-3)]Gal(b1-4)GlcNAc(b1-2)Man(a1-6)]Man(b1-4)GlcNAc(b1-4)[Fuc(a1-6)]GlcNAc
Outline: as §1

[15] = target: Fuc(a1-2)[Gal(a1-3)]Gal(b1-4)GlcNAc(b1-3)GalNAc
Outline: as §1

[16] = target: Fuc(a1-2)[Gal(a1-3)]Gal(b1-4)GlcNAc(b1-3)[Fuc(a1-2)[Gal(a1-3)]Gal(b1-4)GlcNAc(b1-6)]GalNAc
Outline: as §1

[17] = target: Fuc(a1-2)[Gal(a1-3)]Gal(b1-4)GlcNAc(b1-6)GalNAc
Outline: as §1

[18] = target: Fuc(a1-2)[Gal(a1-3)]Gal(b1-4)[Fuc(a1-3)]Glc
Outline: as §1

[19] = target: Fuc(a1-2)[Gal(a1-3)]Gal(b1-4)[Fuc(a1-3)]GlcNAc
Outline: as §1

[20] = target: Fuc(a1-2)[Gal(a1-3)]Gal(b1-4)[Fuc(a1-3)]GlcNAc(b1-3)GalNAc
Outline: as §1

[21] = target: Fuc(a1-2)[Gal(a1-4)]Gal(b1-4)GlcNAc
Outline: as §1

[22] = target: Fuc(a1-2)[GalNAc(a1-3)]Gal
Outline: as §1

[23] = target: Fuc(a1-2)[GalNAc(a1-3)]Gal(b1-3)GalNAc(a1-3)[Fuc(a1-2)]Gal(b1-4)GlcNAc
Outline: as §1

[24] = target: Fuc(a1-2)[GalNAc(a1-3)]Gal(b1-3)GalNAc(b1-3)Gal(a1-4)Gal(b1-4)Glc
Outline: as §1

[25] = target: Fuc(a1-2)[GalNAc(a1-3)]Gal(b1-3)GlcNAc
Outline: as §1

[26] = target: Fuc(a1-2)[GalNAc(a1-3)]Gal(b1-3)GlcNAc(b1-2)Man(a1-3)[Fuc(a1-2)[GalNAc(a1-3)]Gal(b1-3)GlcNAc(b1-2)Man(a1-6)]Man(b1-4)GlcNAc(b1-4)GlcNAc
Outline: as §1

[27] = target: Fuc(a1-2)[GalNAc(a1-3)]Gal(b1-3)GlcNAc(b1-2)Man(a1-3)[Fuc(a1-2)[GalNAc(a1-3)]Gal(b1-3)GlcNAc(b1-2)Man(a1-6)]Man(b1-4)GlcNAc(b1-4)[Fuc(a1-6)]GlcNAc
Outline: as §1

[28] = target: Fuc(a1-2)[GalNAc(a1-3)]Gal(b1-3)GlcNAc(b1-3)GalNAc
Outline: as §1

[29] = target: Fuc(a1-2)[GalNAc(a1-3)]Gal(b1-3)GlcNAc(b1-6)GalNAc
Outline: as §1

[30] = target: Fuc(a1-2)[GalNAc(a1-3)]Gal(b1-4)Glc
Outline: as §1

[31] = target: Fuc(a1-2)[GalNAc(a1-3)]Gal(b1-4)GlcNAc
Outline: as §1

[32] = target: Fuc(a1-2)[GalNAc(a1-3)]Gal(b1-4)GlcNAc(b1-2)Man
Outline: as §1

[33] = target: Fuc(a1-2)[GalNAc(a1-3)]Gal(b1-4)GlcNAc(b1-2)Man(a1-3)[Fuc(a1-2)[GalNAc(a1-3)]Gal(b1-4)GlcNAc(b1-2)Man(a1-6)]Man(b1-4)GlcNAc(b1-4)GlcNAc
Outline: as §1

[34] = target: Fuc(a1-2)[GalNAc(a1-3)]Gal(b1-4)GlcNAc(b1-2)Man(a1-3)[Fuc(a1-2)[GalNAc(a1-3)]Gal(b1-4)GlcNAc(b1-2)Man(a1-6)]Man(b1-4)GlcNAc(b1-4)[Fuc(a1-6)]GlcNAc
Outline: as §1

[35] = target: Fuc(a1-2)[GalNAc(a1-3)]Gal(b1-4)GlcNAc(b1-3)Gal(b1-4)GlcNAc
Outline: as §1

[36] = target: Fuc(a1-2)[GalNAc(a1-3)]Gal(b1-4)GlcNAc(b1-3)Gal(b1-4)GlcNAc(b1-3)Gal(b1-4)GlcNAc
Outline: as §1

[37] = target: Fuc(a1-2)[GalNAc(a1-3)]Gal(b1-4)GlcNAc(b1-3)GalNAc
Outline: as §1

[38] = target: Fuc(a1-2)[GalNAc(a1-3)]Gal(b1-4)GlcNAc(b1-3)[Fuc(a1-2)[GalNAc(a1-3)]Gal(b1-4)GlcNAc(b1-6)]GalNAc
Outline: as §1

[39] = target: Fuc(a1-2)[GalNAc(a1-3)]Gal(b1-4)GlcNAc(b1-6)GalNAc
Outline: as §1

[40] = target: Fuc(a1-2)[GalNAc(a1-3)]Gal(b1-4)[Fuc(a1-3)]GlcNAc
Outline: as §1

[41] = target: Fuc(a1-2)[GalNAc(a1-3)]Gal(b1-4)[Fuc(a1-3)]GlcNAc(b1-3)GalNAc
Outline: as §1

[42] = target: Fuc(a1-2)[GalNAc(a1-4)]Gal(b1-4)GlcNAc
Outline: as §1

[43] = target: Fuc(a1-2)[GalNAc(b1-3)]Gal
Outline: as §1

B1: PX14343B-bfa-546-20-546 (Bacteroides fragilis) (protein)
chain: CDLERYPLTDLSEETFWNSESNAELALTSLYRGSLTDGVEYNPSDWWSYHGMIMMEHLSDNAFDRRGENNPFFKISSGNLTADNAFIKRYWETSYKRIGYCNRFLVGIQNSSESEKKTRMIAEARFLRATQYFYLASYFKNVPLVENVLTGEEANNVTKTSQADILKWCVTEFTAAAADLPRFSAIPAGEAGRACKQAALAFLGRTCMLQKDWKSGAKAFHDIMELGDNAINANYQELFYPSTGTSNKENIFYIQYLENYLGTGLPQHALSAKDGGWSLVNPAADLYESYEFKDGTPFSYDDPRYDPSNLGKDRDPRLDYTIYYNGAIFMGTEYKMSPDYSAAKKEKLDYTSEASRTGFMMRKYFEESTPINDVQSANGLTPVIRYAEVLLGYLECLVEDNQTITQGILDETINAVRGRASVNMPPVTEVTPAKLREIVRHERRIELAMEGIRYWDIMRWGIAHEVLSQKIWGAPYPGSTQYATTTKEVDPTGNYRWYVGKRAFRNPTDYTWPIPQSEQNINPNLRD
[1]
  glycan array binding signal (z-score): 6.35
Fuc(a1-2)Gal6S(b1-4)Glc
  glycan array binding signal (z-score): 0.199
[2]
  glycan array binding signal (z-score): 0.709
Fuc(a1-2)[Gal(a1-3)]Gal
  glycan array binding signal (z-score): -0.117
[3]
  glycan array binding signal (z-score): -0.12
[4]
  glycan array binding signal (z-score): -0.127
[5]
  glycan array binding signal (z-score): -0.119
[6]
  glycan array binding signal (z-score): -0.131
[7]
  glycan array binding signal (z-score): -0.102
[8]
  glycan array binding signal (z-score): -0.106
[9]
  glycan array binding signal (z-score): -0.123
[10]
  glycan array binding signal (z-score): -0.124
[11]
  glycan array binding signal (z-score): -0.126
[12]
  glycan array binding signal (z-score): -0.127
[13]
  glycan array binding signal (z-score): -0.111
[14]
  glycan array binding signal (z-score): -0.106
[15]
  glycan array binding signal (z-score): -0.12
[16]
  glycan array binding signal (z-score): -0.127
[17]
  glycan array binding signal (z-score): -0.122
[18]
  glycan array binding signal (z-score): -0.124
[19]
  glycan array binding signal (z-score): -0.129
[20]
  glycan array binding signal (z-score): -0.134
[21]
  glycan array binding signal (z-score): -0.126
[22]
  glycan array binding signal (z-score): -0.121
[23]
  glycan array binding signal (z-score): -0.113
[24]
  glycan array binding signal (z-score): -0.132
[25]
  glycan array binding signal (z-score): -0.123
[26]
  glycan array binding signal (z-score): -0.129
[27]
  glycan array binding signal (z-score): -0.118
[28]
  glycan array binding signal (z-score): -0.127
[29]
  glycan array binding signal (z-score): -0.126
[30]
  glycan array binding signal (z-score): -0.123
[31]
  glycan array binding signal (z-score): -0.127
[32]
  glycan array binding signal (z-score): -0.124
[33]
  glycan array binding signal (z-score): -0.117
[34]
  glycan array binding signal (z-score): -0.124
[35]
  glycan array binding signal (z-score): -0.126
[36]
  glycan array binding signal (z-score): -0.121
[37]
  glycan array binding signal (z-score): -0.12
[38]
  glycan array binding signal (z-score): -0.117
[39]
  glycan array binding signal (z-score): -0.126
[40]
  glycan array binding signal (z-score): -0.098
[41]
  glycan array binding signal (z-score): -0.116
[42]
  glycan array binding signal (z-score): -0.115
[43]
  glycan array binding signal (z-score): -0.129
